# Among all 310,000 compounds or so, about 2,200 (0.71%) showed an effect of 50% or more. Effects have a minus sign here. The list shows a part of the results.
# Biological target: human ether-à-go-go-related gene (hERG) potassium channel (human, UniProt Q12809)
# Experiment: primary screen, population patch clamp on CHO cells stably expressing hERG
# Chain of human ether-à-go-go-related gene (hERG) potassium channel (Q12809 whole entry, looked up): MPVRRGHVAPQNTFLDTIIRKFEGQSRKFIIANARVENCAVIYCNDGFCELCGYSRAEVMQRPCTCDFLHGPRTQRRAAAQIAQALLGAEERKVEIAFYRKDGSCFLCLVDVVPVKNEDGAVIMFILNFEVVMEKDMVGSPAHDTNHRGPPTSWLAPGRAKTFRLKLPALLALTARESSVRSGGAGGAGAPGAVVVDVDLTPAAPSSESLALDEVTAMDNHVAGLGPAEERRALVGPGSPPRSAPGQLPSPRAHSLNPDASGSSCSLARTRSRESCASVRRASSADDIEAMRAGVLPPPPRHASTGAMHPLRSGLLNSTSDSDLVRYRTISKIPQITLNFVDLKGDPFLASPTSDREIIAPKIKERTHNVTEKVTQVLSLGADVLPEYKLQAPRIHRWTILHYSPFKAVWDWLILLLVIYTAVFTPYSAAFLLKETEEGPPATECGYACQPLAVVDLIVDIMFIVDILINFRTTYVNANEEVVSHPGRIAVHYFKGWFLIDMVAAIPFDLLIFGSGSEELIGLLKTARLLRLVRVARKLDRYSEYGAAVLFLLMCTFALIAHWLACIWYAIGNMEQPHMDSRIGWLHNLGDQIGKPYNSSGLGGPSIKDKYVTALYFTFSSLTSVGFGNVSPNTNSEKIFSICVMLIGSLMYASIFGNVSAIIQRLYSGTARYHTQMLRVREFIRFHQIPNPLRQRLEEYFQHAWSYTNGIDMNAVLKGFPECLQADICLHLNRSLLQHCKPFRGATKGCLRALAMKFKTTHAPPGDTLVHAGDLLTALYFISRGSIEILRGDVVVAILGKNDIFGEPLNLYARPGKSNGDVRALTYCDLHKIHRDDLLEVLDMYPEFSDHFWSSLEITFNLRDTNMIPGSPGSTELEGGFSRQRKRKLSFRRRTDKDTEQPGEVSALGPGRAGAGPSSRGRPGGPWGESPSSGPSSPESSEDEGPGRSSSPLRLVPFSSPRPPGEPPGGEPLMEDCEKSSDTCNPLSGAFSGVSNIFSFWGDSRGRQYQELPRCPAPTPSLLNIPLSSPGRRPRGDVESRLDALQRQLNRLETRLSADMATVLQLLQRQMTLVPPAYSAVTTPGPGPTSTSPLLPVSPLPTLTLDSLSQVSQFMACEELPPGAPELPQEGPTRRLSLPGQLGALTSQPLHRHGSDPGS
row,Compound,"hERG current change (%, negative = inhibition) at 1uM [%]"
1,CC1CCN(C2CC(=O)N(c3ccccc3)C2=O)CC1 (stereo not shown),19.2
2,N/C(=N\OC(=O)c1cc(Cl)ccc1Cl)c1ccccn1,8.11
3,O=C(CCC1CCCC1)NNC(=O)c1cccc(Cl)c1,5.23
4,CC(=O)c1cc2c(cc1NC(=O)CSc1nc3ccccc3[nH]1)OCO2,-2.99
5,COc1ccc(N(CC(=O)NCc2ccc(C)cc2)S(=O)(=O)c2c(C)[nH]c(=O)[nH]c2=O)cc1,16
6,O=C1CNC(=O)/C1=C\c1ccc(O)cc1,15.3
7,Cc1csc(NC(=O)CSc2nc(=O)cc(N)n2-c2ccc(F)cc2)n1,13.8
8,COC(=O)C1CCN(c2cc(=O)n(-c3ccc(OC)cc3)c(=O)[nH]2)CC1,9.72
9,CC1=CC(C)=Nc2ccc(C)cc2N1,-4.11
10,O=C1CCC(N2C(=O)c3ccccc3C2=O)C(=O)N1 (stereo not shown),17.6
11,COc1ccc2[nH]c(C(=O)O)c(NC(=O)c3cc(OC)c(OC)c(OC)c3)c2c1,5.04
12,CCCCCC1NC(=O)NC1CCCCCC(=O)O (stereo not shown),12.4
13,Cc1ccc(N/C=C(/C#N)c2ccsc2)cc1,7.37
14,O=c1c2ccccc2c(=O)n(Cc2ccccc2)n1Cc1ccccc1,17.4
15,Cc1[nH]nc2c1C(C(C)C)C(C#N)=C(N)O2 (stereo not shown),9.58
16,Cc1noc(C(=O)Nc2sc3c(c2C#N)CCC3)c1Cl,17.1
17,Cc1nc(NCC2CCCO2)nc2c1C(=O)CC(C)(C)C2 (stereo not shown),19.1
18,CCSc1nc(-c2ccc(OC)cc2)n(-c2nc3ccccc3s2)n1,-4.99
19,O=C(Nc1ccccc1N1CCOCC1)c1ccccc1NS(=O)(=O)c1ccc(F)cc1,10.3
20,CCN(CC)S(=O)(=O)c1ccc(N2CCOCC2)c(NC(=O)c2ccc(F)cc2)c1,-9.49
21,O=C(c1cc(-c2ccccc2O)on1)N1CCCC1,8.08
22,COc1ccc(/C=N/Nc2cc(C)nc(N3CCOCC3)n2)c(OC)c1,16.8
23,COc1ccc(-c2nc(CS(=O)CC(=O)N3CCc4ccccc4C3)c(C)o2)cc1 (stereo not shown),-1.79

row,Compound,"hERG current change (%, negative = inhibition) at 1uM [%]"
1,CC(C)CCNC(=O)COc1cccc2c1OC(C)(C)C2,11.5
2,Cc1ccc(C)c(N(CC(=O)NN=C2CCCCCCC2)S(C)(=O)=O)c1,-0.335
3,COC(=O)c1ccc(NC(=O)CSCc2ccccc2C)cc1,1.13
4,COc1ccccc1NC(=O)C(CCS(C)(=O)=O)N1C(=O)c2ccccc2C1=O (stereo not shown),14.8
5,Fc1ccccc1NC(=S)NC1CCCC1,18.1
6,CC(C)=CC(=O)Nc1nnc(-c2ccccc2)s1,0.187
7,CC12CCC(=O)N1C(C(=O)Nc1cccc3ccccc13)CS2 (stereo not shown),11.8
8,C=CCn1c(SCC(=O)Nc2ccc3c(c2)OCO3)nnc1-c1ccccc1O,2.93
9,CCOC(=O)N1CCN(C(=O)CSc2nnc(COc3ccccc3)o2)CC1,-1.13
10,O=C(c1ccccc1)c1ccc(C(=O)N2CCN(c3ccccc3Cl)CC2)cc1,6.65
11,COc1cccc(CN(Cc2cccnc2)S(=O)(=O)c2ccc(-n3cnnn3)c(C)c2)c1OC,-5.85
12,CCCC(CCC(=O)Nc1ccc(C(=O)OC)cc1)C(=O)O (stereo not shown),1.94
13,CCN(C(=O)COC(=O)CNS(=O)(=O)c1ccccc1)c1ccccc1,8.78
14,CCN(CC(=O)Nc1cc(Cl)ccc1C)C(=O)Cc1sc(C)nc1-c1ccc(F)cc1,-1.52
15,COc1ccc(OC)c(C(=O)Cn2nnc3ccccc3c2=O)c1,10.6
16,Cc1cccc(-n2c(-c3ccco3)n[nH]c2=S)c1,14.1
17,Oc1ccc(NCc2ccc(OCc3ccccc3)cc2)cc1,11.4
18,CCC(C)C(=O)Nc1nnc(SCC(=O)NC2CCCC2)s1 (stereo not shown),18.5
19,CC1(C)OC2C(CO)OC(n3cnc4c(=S)nc[nH]c43)C2O1 (stereo not shown),15.1
20,COc1ccc(-n2c(SCC(=O)NC3CCCCC3)nc3ccsc3c2=O)cc1,-4.99
21,COc1ccc2oc(C(=O)OCC(=O)Nc3cc(S(=O)(=O)N4CCOCC4)ccc3OC)c(C)c2c1,7.54
22,CCCCC(=O)NC(c1ccco1)c1c(O)ccc2ccccc12 (stereo not shown),6.53
23,CC1=CC(C)C(CN(CCC[N+](C)(C)C)C(=O)Nc2ccccc2)C(C)C1.[I-] (stereo not shown),17.8

row,Compound,"hERG current change (%, negative = inhibition) at 1uM [%]"
1,CCOC(=O)c1nc2sc(C)c(C)c2c(=O)[nH]1,12.3
2,O=C(CCc1nc2ccccc2c(=O)[nH]1)N1CCN(c2ccc(F)cc2)CC1,-28.8
3,CC1(c2ccc(Cl)c(Cl)c2)NC(=S)N2C1NC(=S)N2c1ccccc1 (stereo not shown),12.3
4,CN(C)c1ccc(C(=O)NC2CCCc3ccccc32)cc1 (stereo not shown),14.1
5,Cc1sc(NC(=O)c2ccco2)c(CN2CCN(c3ccccn3)CC2)c1C,6.47
6,CC(C)CN1C(=O)NC(NC(=O)c2cccs2)(C(F)(F)F)C1=O (stereo not shown),-8.36
7,CNc1sc(C(=O)c2ccccc2F)c(N)c1-c1nc2ccccc2s1,10.9
8,CCOc1ccccc1NC(=O)Nc1ccc2c(c1)OCO2,10.7
9,CCOC(=O)c1sc(=S)n(C)c1NC(=O)c1ccccc1C,14.1
10,COc1ccc(CCc2nnc(CCC(=O)NCc3cnc4ccccn34)o2)cc1,11.4
11,CCN(CC1CCCO1)C(=O)CCc1nnc(CCc2ccccc2OC)o1 (stereo not shown),-4.29
12,CC1Cc2nc(SCC(=O)N3CCOCC3)n(-c3ccccc3)c(=O)c2S1 (stereo not shown),13.4
13,CC(CCc1ccccc1)NC(=O)c1ccc2nc(N3CCOCC3)sc2c1 (stereo not shown),5.47
14,Cc1ccc(NC(=O)CSc2nn(-c3ccccc3)c(=S)s2)cc1S(=O)(=O)N(C)C,5.35
15,CCc1cccc2c1NC(=O)[C@]21[C@@H]2C(=O)N(Cc3ccccc3)C(=O)[C@@H]2[C@@H]2CCCN21,10.1
16,CCOC(=O)CC(=O)Nc1ccsc1C(N)=O,11.9
17,COc1ccccc1C(CNC(=O)COc1ccccc1C)N1CCCC1 (stereo not shown),7.2
18,Cc1c(NC(N)=O)c(=O)n(-c2ccccc2)n1C,1.18
19,COc1ccc(N2CCN(C(=O)CN(C)S(=O)(=O)c3cccs3)CC2)cc1,12.7
20,O=C(O)CN1C(=O)/C(=C2\C(=O)N(Cc3ccccc3Cl)c3ccccc32)SC1=S,5.2
21,CCCCOC(=O)c1ccc(O)cc1,11
22,O=C(Nc1c(Cl)cc(Cl)cc1C(=O)NCCN1CCOCC1)c1ccc(Cl)cc1Cl,-2.37
23,COc1ccccc1NC(C#N)c1ccccc1OCc1ccccc1 (stereo not shown),14.2

row,Compound,"hERG current change (%, negative = inhibition) at 1uM [%]"
1,COc1cc(C(=O)Nc2ccc(Br)cc2C(=O)c2ccccc2)cc(OC)c1OC,12.3
2,Cc1cc(NS(=O)(=O)c2ccc(NC(=O)NC(C)(C(F)(F)F)C(F)(F)F)cc2)no1,-1.16
3,COC(=O)c1cc(COC(=O)c2cccnc2SC)oc1C,15.1
4,O=C(Nc1cccc(-c2nc3ncccc3o2)c1)c1cc2ccccc2o1,5.21
5,O=C(NC1CCCCC1)N(C1=NCCCCC1)c1ccc(Br)cc1,13.1
6,Cc1cc(C)cc(N2Cc3ccccc3C2)c1,1.93
7,COc1cc(/C=C/C(=O)OCC(=O)NCc2cccs2)ccc1OC(F)F,16
8,CC(C)C(C(=O)NCc1ccco1)N(C(=O)CNS(=O)(=O)c1ccccc1)C1CCCC1 (stereo not shown),13.6
9,COc1ccc(/C=C/C(=O)N2CCN(c3ccccn3)CC2)c2ccccc12,-0.658
10,CCN(CC)CCn1c(NC(=O)c2ccc(C(F)(F)F)cc2)nc2ccccc21,-4.82
11,N#C/C(=C\c1cccs1)C(=O)NCc1ccco1,6.94
12,CCn1c(SCC(=O)NNC(=O)c2ccc(OC)cc2)nnc1C1CC1,19.6
13,O=C(OCc1c(Cl)cccc1Cl)c1cnccn1,17
14,Fc1ccccc1NC(=S)N(CCCN1CCOCC1)Cc1cccnc1,0.592
15,CCN1CCN(c2ccc(S(=O)(=O)N3CCOCC3)cc2NC(=O)/C=C/c2ccc([N+](=O)[O-])cc2)CC1,-50.5
16,Fc1ccc(-c2csc(N3CCOCC3)n2)cc1,11.2
17,Cc1c(NC(=O)c2cc(-n3cnnc3)ccc2Cl)cccc1-c1nc2ccccc2o1,6.86
18,O=C(NCCc1c[nH]c2ccccc12)c1cncc(Br)c1,4.72
19,O=C1NC(c2ccccc2)CCC1(Cl)Cl (stereo not shown),14.4
20,O=[N+]([O-])c1ccc(-n2nnnc2-c2ccccc2)cc1,-3.86
21,OC(C#CCN1CCCC1)c1ccccc1 (stereo not shown),5.68
22,O=C(CCSc1ccc(Br)cc1)Nc1cccnc1,8.53
